Data taken from the supplement of paper PMC3334620.
Over roughly 33,000 sequences, “E-score (-0.5 to 0.5)” has its median near -0.01; the highest 2% begin near 0.26. Some of the results follow.

Target: Ste12 (UniProt P13574)
Test: PBM E-score (8-mer binding enrichment) (E-score (-0.5 to 0.5)); higher = stronger / more preferred TF binding; most listed sequences are background and not binding sites
Conditions: protein concentration: 200 nM; construct: GST-DNA-binding domain
Summary of the method: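 PURExpress in vitro transcription/translation supplied GST-tagged yeast transcription factors, either full-length or DNA-binding domain. Applied at about 100-200 nM to universal all-10-mer Agilent arrays double-stranded by primer extension, the bound protein was detected with fluorescent anti-GST. E-scores, modified Wilcoxon-Mann-Whitney statistics, were given by the Universal PBM Analysis Suite to ungapped eight-base words pooled with their reverse complements after masliner normalisation.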

Sequence	PBM E-score
ACACTTAT	0.132
CTCAACAC	0.103
CAGGCGGC	-0.244
CATATCGA	0.123
GGTTGGGA	-0.0571
CGGCTTGC	0.219
AACACAGC	0.186
ATCTATAC	0.0285
CCACTCCC	0.0138
GAGGCATA	-0.103
CATTTCAA	0.214
GCTGGAAA	0.00555
AGGAATAG	0.0361
CTCGGCCC	-0.256
ACTCACAG	0.0124
CTCCGATC	-0.268
TGCCTGAA	-0.0642
AATCTCCG	-0.0853
ATAAACCA	0.128
ATCGCCTC	0.038
ACTGCCGG	-0.00377
AAAGTATC	0.0864
AGCATTAC	-0.087
GGGATGAA	-0.0298
AAAACTTC	0.0623

Sequence	PBM E-score
AGTGCTTC	-0.0683
GAAGGTGA	-0.00036
ACTACTGA	-0.132
AGCATGAT	0.0231
GGGATCCC	-0.0609
CAGTCTCA	0.0426
ATGCCAGC	-0.22
AGGGCACA	-0.146
GATCCTCA	-0.0335
ATGGACGC	-0.0759
AGACGTAG	-0.222
AGTAACAT	0.0975
AAGGCCGA	-0.0307
ACCTACGC	-0.0219
CGGCCTCC	0.0559
GAATAGGC	-0.0142
AAACGATC	0.0755
AGCTGACC	-0.00439
CGCGAACG	-0.082
ACCTCCCC	0.161
CCCGCCCG	0.233
ATACCTCC	-0.0155
ACGCTCCA	-0.0922
GCGGTAAA	0.134
TCATACCA	-0.0469

Sequence	PBM E-score
ACAGGATA	0.0107
TCTCCGAA	-0.101
AACATACC	0.0852
AGATTGAA	0.101
CAGACTTA	-0.224
CGCGGTAG	0.0609
GCTACAGA	-0.199
CCTGACCA	0.0373
GATATCAA	0.129
GAACTGCA	0.00164
TGTGGCAA	0.0182
GACTCCAA	-0.141
CAAGACTA	0.0335
CATGGGAG	0.122
GCGACAAA	0.114
ACACTGAA	0.184
ATCTCAAA	0.27
GCATACCC	0.0634
CTCTGCCA	-0.0982
CTCGGACA	0.00957
CCTAACTC	-0.0205
CAAACGTC	0.0704
GCTCGTTA	-0.122
ATAACAAC	0.141
ATATTAAC	0.285

Sequence	PBM E-score
CCACAATA	0.132
CTAATTGA	0.114
CGTAGGCA	-0.226
AATGGCTC	0.0653
GCAATCGC	-0.128
ATTGTCTA	0.0212
ATCTGATA	0.114
ATTCACCA	0.00077
CTTGTACA	0.0503
CTACACCA	0.0459
AAACGAGC	0.175
ACACGTCT	-0.185
CCAACATC	0.0236
ACATGGTC	0.109
CCTGAGCC	-0.0591
AAACCGCT	-0.0607
TCTTGGCA	0.0241
AATCTAAG	0.0747
AGTTTAAT	0.238
CCAAGCTA	-0.104
AAATAGAG	0.0914
CGGGAACA	0.0209
GAAGAGTA	-0.00644
AACGACAG	0.0325
GACGCCAA	0.0781

Sequence	PBM E-score
GGGCAAAC	0.0104
TAGCCGGA	0.0132
CCCAGAAA	0.103
ACCAAGCC	-0.114
AGTTGTGG	0.0605
AAGGCTAC	-0.0373
ACGTGTGG	-0.047
CTCGGCAC	-0.00063
CGTTCTGC	-0.0359
GATGCGAA	-0.0468
ATGTATCC	0.0246
ATTGGAAG	0.0324
GCACAATA	-0.0437
ACCCTGCC	-0.0193
GGCTCGCA	-0.137
ACAAATCT	0.147
ATACCATG	-0.029
AGGAATAA	-0.0181
ACCTAAGA	0.0806
CCGATTTA	0.199
CGCCTGGC	-0.11
ACAAGACG	-0.132
CATCCGTA	0.0512
GAGCACCA	-0.0761
CACACGTG	0.0372

Sequence	PBM E-score
CCGCCAAG	-0.133
CAAGACTG	-0.101
AGGGGTGG	0.258
GATCAAGC	-0.0184
CTGGTGAC	-0.184
GGAAAGCA	-0.0204
CAGATTGA	-0.0393
CAATAGTG	0.122
GGTGGAGA	-0.129
AGTAAGGG	-0.0174
ATCTAGTG	-0.0515
CGACTTAA	-0.107
CGAACTGC	-0.134
CTCCTGCC	-0.154
GGCAATAA	0.0297
AGAAACTG	0.102
TGTCGAAA	0.0506
AAAGAGAG	0.102
CCCGGAAA	0.218
ACTAGCGC	-0.0232
CAGGATCG	0.0943
ACACCGAG	0.0488
CCTGGAAG	-0.195
ACTGGCGA	-0.158
ACGACATC	-0.115

Sequence	PBM E-score
CACTACCC	-0.16
AATGGAAG	-0.0266
CTGCCGAA	-0.0895
ACTAATCA	0.0131
CAATTTCG	0.104
GTTGGATA	-0.158
ATAGGGTG	-0.145
AACTGATC	0.0373
CCGCAACG	0.0364
ATTATCAA	0.133
TCATATCA	0.0104
CCATCCAC	-0.044
TCAAGAGA	-0.0491
ATCGCTCC	-0.162
CTCCGACA	0.0703
ACTCTTGG	-0.0414
CCCATCGG	-0.0908
AGGCTCTA	-0.265
GCGCGTAC	-0.0343
CAGCCCGG	0.00732
AGTCATCC	-0.142
CATAAGGA	-0.0623
GACTATGC	-0.0435
CCTATCCA	-0.165
CCGGAGCC	0.104

Sequence	PBM E-score
GCCTGGCC	-0.168
ATACGATA	0.0198
ACCTTGAA	0.107
AAGCCTTG	-0.00117
ACGTAAGT	-0.295
AGGGATGC	-0.175
AAATTACG	0.223
ACGAACTG	-0.18
ATTTGTCG	0.189
ACTATGAC	-0.0384
AACGTATG	-0.0675
ACCACCCG	-0.106
CGGGAGAA	0.0131
TACGGGAA	0.101
AGGAGTTA	-0.124
CAAGAGGG	-0.125
ATGGATGA	0.173
GACCACCC	-0.189
TACACGAA	0.00858
ATCCGTTG	-0.0284
ACCTAGTC	-0.166
AGGGCTAT	-0.264
TCACATCA	0.257
CCTCATGA	0.0311
CTCCACAG	-0.187

Sequence	PBM E-score
AATGTCTG	0.00495
AATCGAGG	0.108
CGCGATGA	0.0956
TCCCGTCA	-0.0215
ATTAATCA	0.145
TCATGACA	0.178
CCTGAAGA	0.14
GAACGACC	-0.178
AAAACCGA	0.115
AGCAGGGA	-0.165
ACAACCAG	-0.153
ATGTACCC	-0.0816
TAAAACGA	0.134
AATAGAGT	-0.0744
CAAGTGAG	-0.0337
CAATGTAA	0.187
CACACACA	0.118
AGGCACAT	0.012
CGCATGAA	0.0861
AGAAGAAC	-0.0218
AATGTATC	0.168
CTACACGA	0.0466
AAACATCC	0.249
ATGGCAAA	0.14
AACATGAG	0.0235

Sequence	PBM E-score
CTAACTAG	0.0938
CCCATCCC	-0.0335
GCGTCGAA	0.152
CCTGCGAA	0.0201
CAGCAGAA	0.0845
ATGGTCAC	0.0173
CGCGAGAG	0.0122
ACGGAAAA	0.177
AACCGGAC	0.011
CTCACAAC	0.119
TAATCGGA	0.0649
ATCCTCGA	0.0483
CGTTAAGA	0.0859
TGTGGTAA	0.0726
AGTCACAT	0.0663
AATGGATC	-0.159
GAGATAAA	0.13
ACCTCAGA	-0.0382
AGGCCGCC	-0.115
ACCGGCCA	-0.0408
GAGATCCC	-0.153
ATAGAGGA	-0.211
AGGCAGTG	0.0201
ACCTCTCG	-0.127
ATGTAGCG	0.0619

Sequence	PBM E-score
ACATTCCA	-0.0641
TGCTTCAA	-0.0117
ACCTGCCA	-0.121
GGCTGCAA	0.173
CCACAGAG	-0.0233
CCAAAACA	0.233
TCTATGAA	0.086
ATCCCAGA	-0.238
CGGTACAA	0.157
AAAATATC	0.147
AGAATAAC	0.125
ACCTGAAC	-0.122
GCTGATCC	0.0347
AGTCCATG	-0.182
CAACCACC	-0.0591
GGCTCCCA	-0.23
ATGGAGGG	-0.0497
ATTGCCGC	-0.0726
GCCGTCGA	-0.0573
TCACCCAA	0.171
CGTTCTAA	0.0856
AAGATGGG	0.0173
GTGGATAA	0.0126
GAGGTCGA	-0.0365
AAACAACG	0.0956

Sequence	PBM E-score
AGGCCTTG	-0.253
AGGCTGGC	-0.0154
CGGTAGAG	-0.232
CGGCCCGC	-0.0395
AGAAGCCT	-0.0396
AGATATAT	0.152
CCGCCACA	0.0134
CTTTTTCC	0.21
ACACTCTC	0.105
AGCGAAAC	0.168
CGCCAACC	-0.142
GGTAGAAA	0.0903
GCATCTCC	-0.0324
AACACGTC	-0.0569
AGGGTATC	-0.102
AACAACCT	0.193
AAGATTTA	0.151
CGCCTAAA	-0.0735
AGGTCAGC	-0.0629
CCCATGCG	-0.114
TATATCAA	0.14
GCAGCTAC	-0.105
CAAGTTAG	-0.0354
CTCTAAAA	0.0605
AATACTTG	0.0737

Sequence	PBM E-score
ATAGATCG	0.0199
CACGCAGC	-0.104
AGTACGTC	0.011
GATTTCGC	0.2
GAGTTTCA	0.407
CCACGCGC	-0.152
GCGTGTAC	-0.217
CCGTTGTA	0.0802
AATATCGC	-0.00602
CGCGATTA	0.177
CCCAAACA	0.238
AGTGACCC	-0.109
ATTGATCA	-0.0362
CCAGCTGC	-0.272
GATTTGAC	0.107
AATCTATG	0.155
AGCGTGGC	-0.0385
CTGTCGGC	-0.0733
CATAGTTA	0.0529
ACTTCGCT	-0.0699
ATAAGCTC	-0.0717
ACACGCTG	-0.0247
CGAAACCC	0.19
CGGAGGTC	-0.036
TACAACGA	0.0972

Sequence	PBM E-score
CAATTTGA	0.141
ATAGCCCA	-0.0642
CCCCGCGA	0.0194
CCCTGACA	-0.0188
GAGGACAA	-0.0381
CAAACTAA	0.265
AAGGATTC	-0.161
GGGACCAA	0.00807
GCTCAGCC	-0.189
ACTTGCCC	-0.24
CCTTACAA	0.0512
AGTAGTAG	-0.0938
AATATACT	0.13
GAGGGGCC	0.0322
CTCCGCCA	-0.0967
CGATCCCG	-0.0144
TATGGTGA	-0.0224
GGGGTTAC	-0.15
CTTGGACC	-0.183
